The whole screen tested about 52,000 compounds, of which about 4,300 (8.3%) were called active. Rule as the data show it: active = survival mostly below about 52% (no sharp cut-off); inactive = mostly above about 56%. The list shows a part of the results.
tested on: DeltatarO mutant; assay: S. aureus survival, RN4220 and DeltatarO strains – OD600, teichoic acid synthesis inhibitors, primary screen (AID 463173); conditions: S. aureus RN4220 wild type/DeltatarO growth, OD600, 18 h, hits give low values, screened at 18.75 µg/mL (by protocol)

Structure (SMILES) | survival
CCCC(=O)N1c2ccccc2-c2nnc(SC)nc2OC1c1sccc1C (stereo not given) | inactive: 51%
COc1ccc(S(=O)(=O)N2CCC(n3c(C)nc4cccnc43)CC2)cc1Cl | inactive: 135%
CN(C(=O)c1ccccc1)c1nc(-c2ccccc2)cs1 | inactive: 83%
CCOC(=O)C1CCN(S(=O)(=O)c2ccccc2)CC1 | inactive: 69%
Cc1n[nH]c(=S)n1CC(=O)n1c2c(c3ccccc31)CCCC2 | inactive: 91%
Cc1ccc(-c2nnc(SCC(=O)NCc3ccccc3)o2)cc1 | inactive: 142%
CC1=C(c2ccc(C)c(C)c2)S(=O)(=O)N=C1N1CCC(C(=O)NCc2ccc(N(C)C)cc2)CC1 | inactive: 64%
Nc1c(-c2nc(-c3ccccc3Cl)no2)nnn1-c1ccccc1C(F)(F)F | inactive: 97%
CCC(C)[C@@H](C(=O)Nc1ccc(C)cc1)N1Cc2ccccc2C1=O (stereo not given in full) | inactive: 74%
O=c1c2oc3ccccc3c2n(Cc2ccccc2F)c(=O)n1Cc1ccc2c(c1)OCO2 | inactive: 78%
C/C=C1\NC(=S)N(Cc2ccccc2)C1=O | inactive: 84%
CCN(CC)S(=O)(=O)c1ccc(NC(=O)c2c(C)oc3ncnc(N4CCCCC4)c23)cc1 | inactive: 81%
COc1ccc(-c2n[nH]c3c2C(c2ccccn2)N(C)C3=O)cc1 (stereo not given) | inactive: 43%
COc1ccc(-n2nc3c(N4CCC(C(=O)NC5CCCCC5)CC4)nnc(C)c3c2C)cc1 | inactive: 90%
O=C1C2C(C(=O)N1c1ccccc1)N1CCCN1C2c1ccccc1 (stereo not given) | inactive: 82%
CCOc1ccc(CNS(=O)(=O)c2ccc3c(c2)CC(C)N3C(C)=O)cc1OC (stereo not given) | inactive: 83%
COc1ccc(OC)c(CCNC(=O)CCCn2c(=O)c3cccn3c3cccnc32)c1 | inactive: 93%
O=C(NCc1ccccc1)c1ccc(CS(=O)(=O)c2c(Cl)cccc2Cl)o1 | inactive: 76%
Cc1ccc(NC(=O)Cn2nc(C)c3nn(-c4ccc(Cl)cc4)c(C)c3c2=O)cc1F | inactive: 70%
COc1ccc(N2CCN(C(=O)CSc3nc(-c4ccccc4)no3)CC2)cc1 | inactive: 83%
COc1ccc(CNC(=O)c2cnn(-c3ccccc3)c2-n2cccc2)cc1OC | inactive: 113%
CC(=O)c1cccc(NC(=O)CCn2nc(C)c(S(=O)(=O)N3CCCCC3)c2C)c1 | inactive: 134%
O=C(c1cccs1)N1CCCc2cc(NS(=O)(=O)c3cc(F)ccc3F)ccc21 | inactive: 73%

Structure (SMILES) | survival
CCc1ccccc1NC(=O)C1CCCN(S(=O)(=O)c2ccc3[nH]c(=O)ccc3c2)C1 (stereo not given) | inactive: 88%
Cc1ccc(OCC(=O)NCC(=O)OCc2cc(=O)n3nc(CC(C)C)sc3n2)cc1 | inactive: 100%
O=C(NCCc1ccc(Cl)cc1)c1cnc2sc(N3CCCC3)nn2c1=O | inactive: 74%
Cc1ccc(NC(=O)c2nc(S(=O)(=O)Cc3ccc(F)cc3)ncc2Cl)cc1C | inactive: 84%
CCOC(=O)c1[nH]c(C)c(CCC(=O)N2CCN(c3cc(C)ccc3C)CC2)c1C | inactive: 102%
Cc1ccc2oc(=O)c3cnn(CC(=O)N4CCN(c5cccc(Cl)c5)CC4)c3c2c1 | inactive: 81%
O=C(CSc1nc(=O)[nH]c2c1CCC2)Nc1cc(C(F)(F)F)ccc1Cl | inactive: 87%
Cc1cc(C(=O)NCCc2ccc(Cl)cc2)c2c(C)nn(-c3ccccc3)c2n1 | inactive: 77%
COc1cc(CNC(=O)c2ccc(NC(=O)N3CCCCc4ccccc43)cc2)cc(OC)c1OC | inactive: 79%
C=Cc1ccc(Cn2c(C)c(CNCCc3ccc(OCC)cc3)c(C(=O)O)c2C)cc1 | inactive: 79%
Cc1ccnc(NS(=O)(=O)c2ccc(NC(=O)c3ccc(C)c(C)c3)cc2)n1 | inactive: 85%
Cc1cccc(C)c1OCC(=O)N(Cc1ccco1)Cc1ccco1 | inactive: 63%
Cc1ccc2c(=O)cc(CSc3ncn[nH]3)[nH]c2c1C | inactive: 78%
CCOC(=O)c1c(C)[nH]c(C)c1S(=O)(=O)N1CCC(C(=O)N2CCN(c3ccc(F)cc3)CC2)CC1 | inactive: 67%
CCn1cc(C(=O)N2CCN(c3cccc(Cl)c3)CC2)c(=O)c2cc(S(=O)(=O)N3CCC(C)CC3)ccc21 | inactive: 91%
O/N=C1\CCCCC1C1=CCCCC1 (stereo not given) | inactive: 116%
Cc1ccc2nc(NC(=O)c3ccc(S(=O)(=O)N4CCC(C)CC4)cc3)sc2c1 | inactive: 93%
Cc1nn2c(C)c(C(=O)N3CCN(c4ccc(Cl)cc4)CC3)cnc2c1-c1ccc(F)cc1 | inactive: 88%
CN(C)c1ccc(C(=O)N2CCN(c3ccccc3)CC2)cc1 | inactive: 66%
COc1cc2c(cc1OC)n(CC(=O)c1ccc(C)cc1C)c(=O)n1nc(CCn3nc(C)cc3C)nc21 | inactive: 67%
O=S(=O)(c1ccc(-c2cnc(C3CC3)o2)cc1)N1CCN(c2ccccc2F)CC1 | inactive: 87%
CCOc1ccc(C2=CSC3=NCCN23)cc1Cl | inactive: 93%
O=C(NCCCN1CCN(c2cccc(Cl)c2)CC1)c1ccc2nc(Cc3ccccc3)oc2c1 | inactive: 102%

Structure (SMILES) | survival
COc1ccc(NC(=O)c2cc(-c3ccccc3F)no2)cc1 | inactive: 78%
Cc1cccc(Nc2sc(C(=O)c3ccc(Cl)cc3)c(N)c2C(N)=O)c1 | inactive: 63%
COc1cccc(CNC(=O)Cn2nc(C)c3sc4ccccc4c3c2=O)c1OC | inactive: 87%
O=C(Nc1ccccc1)Nc1nnc(SCC(=O)N2CCCCC2)s1 | inactive: 135%
Cc1ccc(N2C(=O)CSC23C(=O)N(CC(=O)NCc2ccccc2)c2ccccc23)cc1 (stereo not given) | inactive: 98%
COc1ccc(C2(C(=O)O)CCCC2)cc1OC | inactive: 107%
CCOc1ccc(-n2cc(-c3ccccc3)c3c(NC4CCCC4)ncnc32)cc1 | inactive: 104%
O=C(CN1C(=O)C2(SCC(=O)N2c2ccc(F)cc2)c2ccccc21)NC1CCCCC1 (stereo not given) | inactive: 80%
CC1=C(c2ccc(C)c(C)c2)S(=O)(=O)N(Cc2ccc(C(=O)Nc3cc(F)ccc3F)cc2)C1=O | inactive: 84%
NC1=NC2(CCCCC2)N(c2ccc(F)cc2)C(N)=N1 | inactive: 88%
Cc1ccc(N2CC(NC(=O)c3cccs3)CC2=O)cc1 (stereo not given) | inactive: 94%
CCc1cccc(CC)c1NC(=O)c1c(C)oc2ccc(O)c(CN3CCCC3)c12 | inactive: 113%
CCCCNC(=O)c1ccc2c(c1)N=C(CC)c1ccccc1S2 | inactive: 70%
O=C(CCCN1C(=O)c2cccnc2Oc2ccc(Cl)cc21)NCc1ccc(F)cc1 | inactive: 90%
CN1CCN(CCNC(=O)c2cnn(-c3ccc(F)cc3)c2C2CCN(C(=O)OC(C)(C)C)CC2)CC1 | inactive: 86%
O=C1C(=O)N(C2CCN(C(=O)c3cccc(Cl)c3)CC2)CCN1Cc1ccc(F)cc1 | inactive: 80%
CCOc1ccc(S(=O)(=O)N2CCN(Cc3nc4ccc(C)cc4o3)CC2)cc1 | inactive: 73%
CCOc1ccc(NC(=O)c2cnc3sc(N4CCOCC4)nn3c2=O)cc1 | inactive: 97%
COc1cccc(N2CC(NC(=O)COc3ccccc3F)CC2=O)c1 (stereo not given) | inactive: 72%
Cc1ccc(C)c(NC(=O)CSc2ccc3nc(-c4ccccc4)cn3n2)c1 | inactive: 90%
CCOc1ccc(CCNC(=O)Cn2c(-c3cccs3)cc3ccccc32)cc1OCC | inactive: 67%
O=C(Nc1cccc(C(=O)OCc2cc(=O)n3nc(C4CC4)sc3n2)c1)c1cccc(Cl)c1 | inactive: 80%
COc1ccc(Nc2oc(/C=C/c3ccccc3OC)nc2C#N)cc1 | inactive: 79%

Structure (SMILES) | survival
COC(=O)CCN(c1ccccc1)C(CNS(=O)(=O)c1ccccc1)c1ccccc1 (stereo not given) | inactive: 111%
CS(=O)(=O)N(CC(=O)N1CCC(C(N)=O)CC1)c1cccc(C(F)(F)F)c1 | inactive: 76%
Cc1ccccc1Nc1nc(N)c(C(=O)c2ccccc2Cl)s1 | inactive: 92%
Cc1cc2oc(C(=O)N(Cc3ccc(N(C)C)cc3)Cc3ccco3)c(C)c2cc1Cl | inactive: 84%
CCCCc1ccc(NC(=O)CSc2nc(=O)[nH]c3c2CCCC3)cc1 | inactive: 74%
CCn1c(SCC(=O)N2CCc3ccccc32)nnc1C(C)C | inactive: 98%
COc1cccc(-c2cc(C(=O)NCc3ccc(F)cc3)no2)c1 | active: 30%
COc1cccc(CNC(=O)CCn2cnc3ccccc3c2=O)c1 | inactive: 77%
CC(CCc1ccccc1)NC(=O)Cn1ncc2c3ccccc3n(Cc3ccccc3)c2c1=O (stereo not given) | inactive: 81%
O=C(CCN1C(=O)c2ccccc2Sc2ncccc21)Nc1ccc(F)cc1 | inactive: 80%
CCOC(=O)c1ccc(NC(=O)c2oc3c(c2C)-c2nn(Cc4ccccc4Cl)cc2CC3)cc1 | inactive: 68%
CC(C)CNc1ncnc2onc(-c3ccc(Cl)cc3)c12 | inactive: 71%
COc1ccc(-c2nnc(SCC(=O)Nc3c(C)cccc3C)nc2-c2ccc(OC)cc2)cc1 | inactive: 92%
CS(=O)(=O)N(CCc1ccccc1)CC(=O)O | inactive: 88%
Cc1nc2cc(-c3cccc(F)c3)nn2c(C)c1CCC(=O)NC(C)c1ccccc1 (stereo not given) | inactive: 53%
COc1cc(C(=O)NCCc2sc(-c3cccc(F)c3)nc2C)cc(OC)c1OC | inactive: 78%
O=C(Nc1ccccc1Br)c1cc(CN2CCCC2)on1 | inactive: 73%
COC(=O)c1c(NC(=O)C2c3ccccc3Oc3ccccc32)sc2c1CCC(C(C)(C)C)C2 (stereo not given) | inactive: 78%
COc1cc2c(cc1NC(=O)c1ccccc1C)n(C)c(=O)n2C | inactive: 65%
O=C(CSc1oc(-c2ccc(F)cc2)nc1S(=O)(=O)c1ccccc1)NC1CCCCC1 | inactive: 61%
CCSc1nnc(NC(=O)c2cc(=O)c3cc(C)ccc3o2)s1 | inactive: 86%

Source: PubChem BioAssay AID463173 (ICCB-Longwood Screening Facility, Harvard Medical School, 2010)
